# Results published in the supplement of paper PMC7826260.
# Some of the results follow. The data describe in vitro nicking of single-stranded DNA by Rep domains (3 µM enzyme, 1 h, 37 °C); shown is the middle of each 90-letter strand. Values are log2 of uncut reads against the no-enzyme pool; more negative means more cut, near 0 not cut, and no call is made. Because reads are shares of a total, they shift together; uncut strands gain when others are lost, and binding without cutting may add a little.
# Experiments:
# Test in all cases: uncleaved DNA left, log2 of reads against the no-enzyme library (log2 ratio); higher = less cleavage (more negative = more Rep cleavage of the k-mer); sequences stand for … in CTCGTCCG…ACCGGAGA
# [1] = tested on: T1, Rep nickase domain of Muscovy duck circovirus
# T1 sequence (protein, residues 1-111, tag omitted): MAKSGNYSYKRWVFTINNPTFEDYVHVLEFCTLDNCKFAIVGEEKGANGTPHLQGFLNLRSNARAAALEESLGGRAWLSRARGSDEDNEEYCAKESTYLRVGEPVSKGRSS
# Method: (§1)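 A pool of 90-nt single-stranded DNAs with seven random bases just before the constant AC of the nick site (name = the seven bases) was cut by 3 µM recombinant His6-SUMO-tagged Rep nickase domain (300 nM DNA, 50 mM HEPES pH 8.0, 50 mM NaCl, 1 mM MnCl2, 1 h, 37 °C, three replicates). Uncut DNA was amplified and sequenced.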
# [2] = tested on: T2, Rep nickase domain of banana bunchy top virus
# T2 sequence (protein, residues 1-94, tag omitted): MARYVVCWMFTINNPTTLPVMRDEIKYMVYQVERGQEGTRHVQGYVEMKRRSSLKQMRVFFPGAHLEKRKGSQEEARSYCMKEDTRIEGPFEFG
# Method: as §1
# [3] = tested on: T3, Rep nickase domain of cabbage leaf curl virus
# T3 sequence (protein, residues 1-116, tag omitted): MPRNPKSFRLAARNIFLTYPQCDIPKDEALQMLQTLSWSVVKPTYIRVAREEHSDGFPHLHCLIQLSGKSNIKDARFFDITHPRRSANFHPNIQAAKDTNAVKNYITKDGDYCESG
# Method: as §1
# [4] = tested on: T4, Rep nickase domain of chickpea chlorotic dwarf virus
# T4 sequence (protein, residues 1-124, tag omitted): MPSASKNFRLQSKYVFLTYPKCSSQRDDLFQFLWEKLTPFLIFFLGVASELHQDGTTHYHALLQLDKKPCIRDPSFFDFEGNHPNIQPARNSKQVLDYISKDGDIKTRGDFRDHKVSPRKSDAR
# Method: as §1
# [5] = tested on: T5, Rep nickase domain of faba bean necrotic yellows virus
# T5 sequence (protein, residues 1-98, tag omitted): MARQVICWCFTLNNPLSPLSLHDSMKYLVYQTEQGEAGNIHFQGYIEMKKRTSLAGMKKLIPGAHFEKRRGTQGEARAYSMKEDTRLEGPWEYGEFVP
# Method: as §1
# [6] = tested on: T6, Rep nickase domain of maize striate mosaic virus
# T6 sequence (protein, residues 1-117, tag omitted): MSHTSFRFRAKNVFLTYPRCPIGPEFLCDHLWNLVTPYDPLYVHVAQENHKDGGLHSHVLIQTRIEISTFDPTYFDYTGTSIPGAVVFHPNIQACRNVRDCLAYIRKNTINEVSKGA
# Method: as §1
# [7] = tested on: T7, Rep nickase domain of porcine circovirus 2
# T7 sequence (protein, residues 2-116, tag omitted): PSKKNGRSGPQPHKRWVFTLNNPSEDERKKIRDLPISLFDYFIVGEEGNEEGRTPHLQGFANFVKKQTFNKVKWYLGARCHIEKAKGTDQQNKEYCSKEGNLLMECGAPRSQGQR
# Method: as §1
# [8] = tested on: T8, Rep nickase domain of tomato golden mosaic virus
# T8 sequence (protein, residues 1-124, tag omitted): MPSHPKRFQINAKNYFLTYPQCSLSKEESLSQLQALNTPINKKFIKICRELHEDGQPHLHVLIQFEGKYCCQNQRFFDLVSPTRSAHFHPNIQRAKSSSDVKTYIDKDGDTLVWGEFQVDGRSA
# Method: as §1
# [9] = tested on: T9, Rep nickase domain of tomato yellow leaf curl virus
# T9 sequence (protein, residues 1-136, tag omitted): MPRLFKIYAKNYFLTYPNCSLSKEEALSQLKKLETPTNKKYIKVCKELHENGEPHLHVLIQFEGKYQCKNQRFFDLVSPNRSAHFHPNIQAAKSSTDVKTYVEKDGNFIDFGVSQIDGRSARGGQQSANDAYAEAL
# Method: as §1
# [10] = tested on: T10, Rep nickase domain of wheat dwarf virus
# T10 sequence (protein, residues 1-137, tag omitted): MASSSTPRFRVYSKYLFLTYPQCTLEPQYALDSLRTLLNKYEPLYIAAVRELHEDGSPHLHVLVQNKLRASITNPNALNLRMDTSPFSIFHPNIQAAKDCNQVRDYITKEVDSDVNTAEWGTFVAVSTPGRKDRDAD
# Method: as §1
Sequence,uncleaved DNA left (log2) [1],uncleaved DNA left (log2) [2],uncleaved DNA left (log2) [3],uncleaved DNA left (log2) [4],uncleaved DNA left (log2) [5],uncleaved DNA left (log2) [6],uncleaved DNA left (log2) [7],uncleaved DNA left (log2) [8],uncleaved DNA left (log2) [9],uncleaved DNA left (log2) [10]
AGGCAAT,0.0368,0.125,0.363,1.37,-0.00508,1.53,0.0581,0.0163,-0.023,0.146
CCTATAA,0.0558,0.0698,-0.165,-0.2,0.0346,-0.724,-0.0103,0.0912,0.029,0.108
CATTCTG,-0.0531,0.0274,-0.481,-0.381,-0.136,-0.879,0.046,-0.0289,-0.0181,0.0357
ACTATTT,-0.124,-0.189,-0.386,-2.5,-0.0137,-0.898,-3.26,-0.053,-0.204,-0.0796
CTGACTC,-0.19,-0.203,-0.0426,0.307,-0.134,0.134,-0.0178,-0.287,-0.11,-0.184
GACCGGC,-0.132,-0.0797,-0.0308,0.22,-0.12,-0.255,-0.00327,-0.123,-0.141,-0.209
CCGAGAA,0.205,0.0596,0.714,1.16,0.121,1.13,-0.00208,0.108,0.0907,0.0514
AGAGTCG,0.044,-0.00235,-0.673,-0.436,0.145,-0.833,0.177,0.103,0.00515,0.0398
CATTGCT,-0.461,-0.793,-0.422,0.402,0.0441,0.38,-1.2,-0.151,0.0419,-0.159
AGCTCAG,0.00124,0.00593,-0.336,-0.00254,0.0145,-0.63,0.0158,-0.0178,-0.0233,0.00906
TACAGCC,0.011,0.0624,-0.225,-0.839,0.0663,-0.857,0.19,-0.0166,0.11,0.0887
GTAGGCC,-0.046,0.162,0.42,1.01,-0.12,1.21,-0.0492,0.0912,0.153,0.156
ACGCATA,0.00116,-0.117,-0.212,-0.823,-0.051,-0.75,-0.0261,-0.00674,-0.109,-0.0327
CGAAGGG,0.039,0.0376,-0.028,0.341,-0.0944,-0.332,0.188,-0.0487,-0.0195,-0.0414
ACTTCAC,0.0175,-0.0705,-0.158,-0.438,-0.0488,-0.936,0.169,0.122,-0.0308,0.0495
CAAATTT,-0.158,-0.632,-3.65,-3.46,0.0716,-2.35,-2.95,-2.88,-0.0505,-3.63
GGGAGGA,0.0421,0.0811,0.907,1.93,-0.085,2.23,0.167,0.0133,-0.00099,0.112
AGATACC,0.175,0.144,0.341,0.769,0.0605,0.761,0.0799,0.0901,0.0902,0.121
TATACAC,-0.036,0.0224,0.256,-0.514,0.07,-0.104,0.0851,0.055,0.0187,0.101
GATCAGT,0.132,0.0585,0.23,0.343,0.121,0.42,-0.0552,0.0211,0.194,0.178
GTGATAT,0.0151,0.179,0.62,1.5,-0.0361,2.04,0.106,0.146,0.126,0.189
AATCGGA,0.027,0.0861,0.191,0.42,0.0362,-0.0839,0.11,0.0794,0.0356,0.0804
ATGCTGC,-0.0178,0.0085,-0.0229,0.52,0.0617,0.124,0.111,-0.0593,-0.101,-0.0554
ACGCGAA,0.0549,-0.0832,-0.465,-0.623,0.0253,-0.847,0.203,0.0843,0.108,-0.0107
TTAACTC,-0.0523,0.0155,-0.083,-1.46,-0.102,-0.447,-0.00602,-0.047,0.0223,-0.000175
GCCATGA,0.0531,0.112,-0.0248,0.351,0.135,-0.355,0.146,0.134,-0.0567,-0.0763
CCGCCAT,-0.0538,-0.0529,0.0317,-0.395,-0.162,-0.159,-0.107,-0.089,-0.198,-0.112
GATCTAC,0.0746,0.0214,0.279,-0.0671,0.125,1.02,0.203,0.149,0.132,0.26
CCTAAGT,0.0423,0.119,0.0872,-0.225,0.00514,-0.843,-0.0955,0.0539,0.0688,-0.157
